# Measured values from PubChem BioAssay AID651820 (National Center for Advancing Translational Sciences (NCATS), 2012).
# “And” between values parts separate entries of the source, which are not always exact repeats. Identical values can stand only once. Among all 340,000 compounds or so, about 12,000 (3.5%) were called active. This list was built around the results that the source calls inconclusive (neither active nor inactive); the mix of calls is not that of the screen. Calls come from the whole dose curve; as a rule, active = well fitted inhibition curve with a large enough effect; inconclusive = small, poorly fitted or top-dose-only effect, or another doubt; inactive = no such curve, though single readings can be large or run the other way. Potencies beside an inconclusive call are fits to weak or partial responses and may not hold up.
# Assay: qHTS Assay for Inhibitors of Hepatitis C Virus (HCV)
# Details: Huh7.5.1 HCVcc-Cre (HCVcc is cell-culture hepatitis C virus) infection, luciferase reporter, 44 h; activity change, negative = inhibition: at 41.8 µM (top of the series)
# Procedure, shortened: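 Infectious HCV cell culture screen: compound-treated cells (1,000/well, pre-plated 4 h) are infected with HCVcc-Cre at roughly 0.5 moi and grown 44 h. Infection is quantified by luciferase signal after 15 min substrate incubation at room temperature.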
# % is set by controls: 0 for no effect and ±100 for the full control effect; potency is the fitted concentration of half-maximal effect; tags give direction and shape of the fitted curve.
SMILES,Potency,"activity change, negative = inhibition"
O=C(Nc1nccs1)c1ccc(COc2ccc(Cl)cc2)o1,"inconclusive: 31.6 µM [inhibitor, single point]",–
Cn1nc(C(F)(F)F)c(/C=N/OC(=O)c2ccccc2)c1SCc1ccccc1Cl,"inconclusive: 22.4 µM [inhibitor, single point]",–
COc1ccc(NC(=O)CCNC(=O)Cn2cnc3ccccc3c2=O)c(OC)c1,"inconclusive: 1.12 µM [inhibitor, full curve]",–
NC(=O)[C@@H]1CCCN1Cc1nc(-c2ccc(C(F)(F)F)cc2)no1,inactive,–
O=C(NNc1ccc(-c2csnn2)cc1)c1cc(Cl)cc(Cl)c1,"inconclusive: 3.98 µM [inhibitor, full curve, poor fit]",–
Cc1ccc2nc(N(CCCN(C)C)C(=O)c3ccc4c(c3)CCCC4)sc2c1,active: 11.2 µM,–
COc1ccc(N2CCN(S(=O)(=O)c3ccc(OC)c(C(=O)N4CCCC4)c3)CC2)cc1,inactive,–
O=C(Nc1cccc(O)c1)c1noc2c1CCc1ccccc1-2,"inconclusive: 31.6 µM [inhibitor, single point]",–
CC1CCCCC1NC(=O)C1CCN(c2c3c(nc4ncnn24)CCC3)CC1 (stereo not given),"inconclusive: 22.4 µM [inhibitor, single point]",–
CCn1cnc2c1c(=O)n(CC(=O)Nc1cc(C)on1)c(=O)n2Cc1ccccc1,inactive,–
COc1ccccc1N1CCN(C(=O)c2oc3ccccc3c2C)CC1,"inconclusive: 31.6 µM [inhibitor, single point]",–
O=c1c(Cl)c(Cl)cnn1-c1ccccc1,active: 3.98 µM,–
O=C(O)CCc1ccc(-c2ccc(F)cc2)n1NC(=O)c1ccco1,inactive,–
Cn1cc(C(=O)OCC(=O)N2CCCC2)c2ccccc21,"inconclusive: 5.62 µM [inhibitor, single point]",–
Cc1ccc(C(=O)OC(C)C(=O)NC2CCCCC2C)cc1S(=O)(=O)N1CCCCC1 (stereo not given),"inconclusive: 31.6 µM [inhibitor, single point]",–
O=S(=O)(c1ccc2ccccc2c1)N1CCN(C(=S)Nc2ccccc2F)CC1,inactive,–
CCN(C(=O)COC(=O)c1cccnc1)c1cccc2ccccc12,"inconclusive: 3.16 µM [inhibitor, partial curve]",–
COc1ccc(C2=NOC(C)(c3nnc(Cc4ccccc4)o3)C2)cc1 (stereo not given),"inconclusive: 5.01 µM [inhibitor, single point]",–
Cc1nc(C)c(C(=O)N/N=C/c2cn(C)c3ccccc23)s1,"inconclusive: 22.4 µM [inhibitor, single point]",–
COc1cc(-c2c(-c3cc(OC)c(OC)c(OC)c3)noc2C)ccc1F,"inconclusive: 10 µM [inhibitor, partial curve]",–
Cc1cc(C)c2sc(N(CCCN(C)C)C(=O)c3ccc(S(=O)(=O)N4CCc5ccccc5C4)cc3)nc2c1,"inconclusive: 31.6 µM [inhibitor, partial curve, poor fit]",–
COc1ccc(C(=O)Nc2cccc(C(=O)Nc3cc(C)ccn3)c2)cc1,"inconclusive: 6.31 µM [inhibitor, full curve, poor fit]",–
COc1cc(/C=N\NC(=O)C2COc3ccccc3O2)cc(OC)c1O (stereo not given),inactive,–
CCCCCCC(=O)c1c(C)[nH]c(C(=O)OCC)c1C,"inconclusive: 22.4 µM [inhibitor, single point]",–

SMILES,Potency,"activity change, negative = inhibition"
CCc1ccc(NC(=O)c2cnn(-c3ccccc3)c2C)cc1,"inconclusive: 1 µM [inhibitor, full curve, poor fit]",–
COc1ccc(-n2c(N)c(C(=O)Nc3c(C)n(C)n(-c4ccccc4)c3=O)c3nc4ccccc4nc32)cc1,inactive,–
Fc1cccc(Cn2cc(C(=S)N3CCOCC3)c3ccccc32)c1,inactive,–
O=C(NCc1ccco1)/C(=C/c1ccco1)NC(=O)c1ccc(Br)o1,"inconclusive: 0.501 µM [inhibitor, partial curve, poor fit]",–
COc1cc(C(=S)N2CCCC2)cc(OC)c1O,inactive,–
Clc1ccc(OCCn2cnc3ccccc32)cc1,"inconclusive: 25.1 µM [inhibitor, single point]",–
CCN(CC(=O)Nc1ccccc1OC)C(=O)c1ccc2[nH]c3c(c2c1)CC(C)CC3 (stereo not given),active: 10 µM,–
COc1ccc(/C=N/NC(=O)C2COc3ccccc3O2)cc1OC (stereo not given),inactive,–
Cc1cc(N/N=C/c2ccccc2O)nc(N2CCOCC2)n1,"inconclusive: 7.08 µM [inhibitor, partial curve]",–
CCN(C(=O)c1cc2c(C)nc3ccccc3c2o1)c1cc(Cl)ccc1OC,active: 10 µM,–
CC1CN(S(=O)(=O)c2ccc(NC(=O)c3cc(-c4ccccc4O)n[nH]3)cc2)CC(C)O1 (stereo not given),active: 8.91 µM,–
Cc1ccc(NC(=O)Nc2nnc(-c3ccncc3)s2)cc1C,"inconclusive: 22.4 µM [inhibitor, single point]",–
COc1ccccc1-n1c(-c2ccccc2Br)nc2ccccc2c1=O,"inconclusive: 4.47 µM [inhibitor, partial curve]",–
CCOC(=O)c1c(C)[nH]c(C(=O)CSc2ccc(Cl)cc2)c1C,"inconclusive: 3.16 µM [inhibitor, single point]",–
C=CCC[C@@H](Cc1ccc(F)cc1)C(=O)OC[C@@H](Cc1c[nH]c2ccccc12)NC(=O)[C@H](CC=C)CC(=O)N[C@H](CO)Cc1ccccc1,"inconclusive: 25.1 µM [inhibitor, single point]",–
C=C(C)COc1ccc2c(C)c(CCC(=O)N3C[C@H]4C[C@@H](C3)c3cccc(=O)n3C4)c(=O)oc2c1,inactive,–
Cc1cccc(NC(=S)NNC(=O)c2ccccc2Br)c1,"inconclusive: 3.16 µM [inhibitor, single point]",–
CC1Cc2ccccc2N1C(=O)CSc1nnc(-c2ccccc2)c(-c2ccccc2)n1 (stereo not given),active: 10 µM,–
COc1ccc(SCCN2CCN(CC(C)C)CCC2=O)cc1,"inconclusive: 31.6 µM [inhibitor, single point]",–
Cc1ccc2nc(NC(=O)c3cccc(-c4cc5ccccc5oc4=O)c3)sc2c1,active: 8.91 µM,–
COc1ccccc1N1CCN(C(c2ccc(Cl)cc2)c2nnnn2C(C)(C)C)CC1 (stereo not given),"inconclusive: 31.6 µM [inhibitor, single point]",–
CC(C)(C)NC(=O)NC(=O)CSc1n[nH]c(-c2ccccc2Br)n1,inactive,–
O=C(CN1C(=O)NC2(CCc3ccccc32)C1=O)NCCc1ccccc1 (stereo not given),inactive,–
Cc1ccc(NS(=O)(=O)c2ccc(NC(=O)c3cccc(NC(=O)C(C)C)c3)cc2)cc1,active: 10 µM,–

SMILES,Potency,"activity change, negative = inhibition"
CCN(CCCNC(=O)c1c(C)cc(=O)oc1C)c1ccccc1,"inconclusive: 7.94 µM [inhibitor, partial curve]",–
CN(CC1COCCO1)c1nc2nonc2nc1N1CCSCC1 (stereo not given),inactive,–
COc1cccc(/C=N/n2c(N)c(S(=O)(=O)c3cccs3)c3nc4ccccc4nc32)c1OC,"inconclusive: 10 µM [inhibitor, partial curve]",–
COc1ccc2nc3c(C)n(C)ccc-3c2c1,"inconclusive: 14.1 µM [inhibitor, single point]",–
CCOC(=O)C1(CCOC)CCN(Cc2cc3ccccc3s2)CC1,"inconclusive: 11.2 µM [inhibitor, partial curve]",–
Clc1ccc(OCc2nnc(SCCN3CCCCC3)n2Cc2ccco2)cc1,"inconclusive: 15.8 µM [inhibitor, single point] and inconclusive: 14.1 µM [inhibitor, single point]",–
O=S(=O)(c1cccs1)N1CCN(c2ccnc3cc(Cl)ccc23)CC1,–,inconclusive: -33.7% [inhibitor]
COC(=O)C1=C(C(=O)OC)[C@@H]2N(C)c3ccccc3[C@@]23C[C@@H](CO)N(C(=O)NCCBr)C3=N1,"inconclusive: 0.562 µM [inhibitor, full curve, poor fit]",–
C#CCN(C)CC/C=C1\c2ccccc2CSc2ccccc21,"inconclusive: 31.6 µM [inhibitor, single point]",–
COC(=O)C1=C(C)NC(C)=C(C(=O)OC)C1C1CC=CCC1 (stereo not given),"inconclusive: 1.78 µM [inhibitor, partial curve]",–
CCOc1cc(C(=O)OCC(=O)NCc2ccco2)cc(OCC)c1OCC,"inconclusive: 3.98 µM [inhibitor, full curve]",–
CCOC(=O)c1c(NC(=O)Cn2nc(C(F)(F)F)cc2C)sc(C)c1C,"inconclusive: 3.55 µM [inhibitor, single point]",–
Cc1ccc(NC(=S)N(Cc2ccco2)C(C)c2cccs2)c(Cl)c1 (stereo not given),"inconclusive: 22.4 µM [inhibitor, single point]",–
O=C1NCC2=C1C(c1ccc(Br)cc1)Nc1ccccc1N2 (stereo not given),inactive,–
O=C(ONC(=O)C1C2C=CC(C2)C1C(=O)NOC(=O)c1ccccc1)c1ccccc1 (stereo not given),"inconclusive: 22.4 µM [inhibitor, single point]",–
Cc1ccc(Cl)c2c1NC(=O)C2(O)CC(=O)c1ccc(Br)cc1 (stereo not given),inactive,–
CCOc1ccc(/C=C/C(=O)Nc2cccc(C(C)=O)c2)cc1,active: 12.6 µM,–
O=C(Nc1nnc2n1CCS2)c1ccco1,inactive,–
COC(=O)C1=C(c2ccc(F)cc2OCc2ccccc2)C[C@@H]2CC[C@H]1N2C(=O)NCCCc1ccccc1,active: 10 µM,–
Cc1ccc(-n2nc3c(N4CCC(C(=O)N5CCCCCC5)CC4)nnc(C)c3c2C)cc1,inactive,–
CC(=O)Nc1ccc(Nc2nc(C)c([N+](=O)[O-])c(Nc3ccccc3)n2)cc1,"inconclusive: 8.91 µM [inhibitor, partial curve]",–
Cc1cccc(OCCC(=O)Nc2ccc(S(=O)(=O)N3CCCC3)cc2)c1,"inconclusive: 31.6 µM [inhibitor, single point]",–
